Test results reported in the supplement of paper PMC10369915.
The list shows a part of the results. Rule as the data show it: active = 3.2 or more and inactive = the rest. Only a few entries rise above the background.

Legend:
Assay in all cases: enrichment score (SH2-bound / input frequency) (ratio); bacterial display of known human phosphotyrosine sites (pTyr-Var adds point mutants) read by sequencing; higher = stronger binding; tyrosines were phosphorylated by kinases first
Conditions in all cases: peptide library: Human pTyr
[1] = molecular target: SHP2 C-SH2 domain E139D
[2] = molecular target: SHP2 C-SH2 domain wild-type
[3] = molecular target: SHP2 N-SH2 domain L43F
[4] = molecular target: SHP2 N-SH2 domain T42A
[5] = molecular target: SHP2 N-SH2 domain T52S
[6] = molecular target: SHP2 N-SH2 domain wild-type

Measured: enrichment score
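Also: displayed peptides selected on beads carrying the immobilized SH2 domain, with library peptides lacking any tyrosine serving as negative controls.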

SFVGTLQYLAPELLE [IKBKB_HUMAN_188]
inactive: [1] 0.968 | [2] 0.698 | [3] 1.06 | [4] 0.979 | [5] 1.01 | [6] 0.733

IKGRAQPYDPNFYDE [HNRNPK_HUMAN_225]
inactive: [1] 0.804 | [2] 0.696 | [3] 0.843 | [4] 0.796 | [5] 0.777 | [6] 0.772

CPFIDNTYSCSGKLL [HOIL1_HUMAN_330]
inactive: [1] 0.778 | [2] 0.837 | [3] 0.711 | [4] 0.886 | [5] 0.951 | [6] 0.94

VYFTYDPYSEEDPDE [IL2RB_HUMAN_387]
inactive: [1] 1.28 | [2] 1.17 | [3] 1.05 | [4] 1 | [5] 1.44 | [6] 1.57

SDRKGGSYSQAASSD [HLA-A_HUMAN_344]
inactive: [1] 0.618 | [2] 0.661 | [3] 0.65 | [4] 0.747 | [5] 0.594 | [6] 0.742

SFEDIHQYREQIKRV [HRAS_HUMAN_96]
inactive: [1] 0.742 | [2] 0.679 | [3] 0.874 | [4] 0.603 | [5] 0.898 | [6] 0.699

IKALRTDYNASVSVP [HNRNPK_HUMAN_72]
inactive: [1] 0.696 | [2] 0.643 | [3] 0.642 | [4] 0.669 | [5] 0.598 | [6] 0.721

VAFTADPYSEEDPDE [IL2RB_HUMAN_387_YA]
inactive: [1] 1.19 | [2] 0.987 | [3] 1.11 | [4] 1.18 | [5] 1.16 | [6] 1.02

SAANPIIYNFLSGKF [HCRTR1_HUMAN_358]
inactive: [1] 1.58 | [2] 1.44 | [3] 1.48 | [4] 1.54 | [5] 1.66 | [6] 1.95

KETQKSIYYITGESK [HS90B_HUMAN_484]
inactive: [1] 1.14 | [2] 1.35 | [3] 1.12 | [4] 0.886 | [5] 0.966 | [6] 1.19

ARYLNRNYWEKKQEE [HGS_HUMAN_334]
inactive: [1] 1.27 | [2] 1.44 | [3] 0.997 | [4] 1.26 | [5] 1.26 | [6] 1.63

IKGRAQPYDPNFADE [HNRNPK_HUMAN_225_YA]
inactive: [1] 0.827 | [2] 0.615 | [3] 0.569 | [4] 0.602 | [5] 0.625 | [6] 0.803

FYDETYDYGGFTMMF [HNRNPK_HUMAN_236]
inactive: [1] 1.8 | [2] 1.75 | [3] 1.91 | [4] 1.32 | [5] 1.64 | [6] 1.98

DTAGQEEYSAMRDQY [HRAS_HUMAN_64]
inactive: [1] 0.5 | [2] 0.537 | [3] 0.58 | [4] 0.752 | [5] 0.754 | [6] 0.918

AKGFGGQYGIQKDRV [HCLS1_HUMAN_198]
inactive: [1] 0.979 | [2] 1.02 | [3] 0.927 | [4] 1.02 | [5] 0.97 | [6] 1.05

TFCGTPEYLAPEVLE [AKT1_HUMAN_315]
inactive: [1] 1.12 | [2] 0.849 | [3] 1.26 | [4] 0.955 | [5] 1.1 | [6] 1.07

AQDLARSYGIPYIET [HRAS_HUMAN_137]
inactive: [1] 0.727 | [2] 0.594 | [3] 0.611 | [4] 0.607 | [5] 0.619 | [6] 0.584

GFREVSFYASEENKL [IGF1R_HUMAN_1280_YA]
inactive: [1] 0.842 | [2] 0.721 | [3] 0.689 | [4] 0.722 | [5] 0.83 | [6] 0.766

EAVVEEDYNENAKNG [HMGN5_HUMAN_76]
inactive: [1] 0.995 | [2] 1.26 | [3] 0.997 | [4] 1.03 | [5] 0.963 | [6] 0.845

SKAVCSTYLQSRAAR [HIPK2_HUMAN_361_YA]
inactive: [1] 0.851 | [2] 0.614 | [3] 0.811 | [4] 0.853 | [5] 0.896 | [6] 0.664

KETQKSIYAITGESK [HS90B_HUMAN_484_YA]
inactive: [1] 1.15 | [2] 0.956 | [3] 0.945 | [4] 1.02 | [5] 1.04 | [6] 1.07

NSGQPPNYEMLKEEH [IFITM3_HUMAN_20]
inactive: [1] 0.698 | [2] 0.594 | [3] 0.676 | [4] 0.612 | [5] 0.657 | [6] 1.2

SGGKGGSYSQAACSD [HLA-B_HUMAN_344]
inactive: [1] 0.661 | [2] 0.498 | [3] 0.569 | [4] 0.675 | [5] 0.766 | [6] 0.732

DTAGQEEYSAMRDQA [HRAS_HUMAN_64_YA]
inactive: [1] 0.732 | [2] 0.58 | [3] 0.735 | [4] 0.586 | [5] 0.643 | [6] 0.7

GMDNQGGYGSVGRMG [HNRH3_HUMAN_296]
inactive: [1] 0.675 | [2] 0.628 | [3] 0.613 | [4] 0.617 | [5] 0.668 | [6] 0.679

EKATGRAYAMKILKK [AKT1_HUMAN_176_YA]
inactive: [1] 1.52 | [2] 1.53 | [3] 1.21 | [4] 1.12 | [5] 1.5 | [6] 1.71

TTGATYSYGPASWEA [AKAP8_HUMAN_53]
inactive: [1] 0.721 | [2] 0.458 | [3] 0.709 | [4] 0.69 | [5] 0.711 | [6] 0.447

FADETADYGGFTMMF [HNRNPK_HUMAN_236_YA]
inactive: [1] 1.72 | [2] 1.56 | [3] 1.45 | [4] 1.52 | [5] 1.76 | [6] 1.68

IDPELARYLNRNAWE [HGS_HUMAN_329_YA]
inactive: [1] 0.811 | [2] 0.549 | [3] 0.638 | [4] 0.612 | [5] 0.738 | [6] 0.805

EDEPEGDYEEVLEPE [HCLS1_HUMAN_397]
inactive: [1] 0.864 | [2] 1.11 | [3] 0.974 | [4] 1.07 | [5] 0.887 | [6] 1.13

NEEAGEFYKSLTNDW [HS90A_HUMAN_313_YA]
inactive: [1] 0.713 | [2] 0.744 | [3] 0.665 | [4] 0.683 | [5] 0.807 | [6] 0.747

SKPPYTDYVSTRWYR [ICK_HUMAN_159]
inactive: [1] 1.49 | [2] 1.3 | [3] 1.42 | [4] 1.3 | [5] 1.27 | [6] 1.44

GAGGADDYGGANDGA [HNRH2_HUMAN_246_YA]
inactive: [1] 0.609 | [2] 0.579 | [3] 0.473 | [4] 0.605 | [5] 0.521 | [6] 0.575

SGRAGPSYSMPVHAA [HLTF_HUMAN_195]
inactive: [1] 0.611 | [2] 0.925 | [3] 0.711 | [4] 0.69 | [5] 0.677 | [6] 0.722

AAGGRGSYGDLGGPI [HNRPK_HUMAN_380_YA]
inactive: [1] 0.516 | [2] 0.528 | [3] 0.603 | [4] 0.558 | [5] 0.608 | [6] 0.522

IVKMLEKYLKGEDPF [AKAP8_HUMAN_539]
inactive: [1] 2.44 | [2] 2.35 | [3] 2.32 | [4] 2.28 | [5] 2.04 | [6] 3.08
